Measured values as given in PubChem BioAssay (NCI).
“And” between values parts separate entries of the source, which are not always exact repeats. Equal entries are not always repeated.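 How tested: cells in 96-well plates exposed to compound for 48 hours at five concentrations. Here, GI50 denotes the concentration required for 50% inhibition of growth. TGI is the concentration that stops growth completely.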 Square brackets hold non-standard residues; d marks the D form. Peptide text beside a SMILES is read from it. * marks the point of attachment. ξ: configuration not given here. ξF = NC(Cc1ccccc1)C(=O)O; Cbz = O=C(OCc1ccccc1)*; Aib = CC(C)(N)C(=O)O

System: NCI-H322M lung
Test: NCI anticancer screen, dose series, 48 h

**Q.** Which TGI does the source give for `CCOC(=O)C(NC(C)=O)(Nc1ccc(S(N)(=O)=O)cc1)C(F)(F)F` (stereo not given) here?
**A.** The TGI was greater than 100 µM.

**Q.** Which TGI does the source give for `O=C(N/C(=C\c1cccc([N+](=O)[O-])c1)c1nc2ccccc2[nH]1)c1ccccc1` here?
**A.** The TGI was greater than 100 µM.

**Q.** Which results are given for `Cc1ccc(C=C2C(Cl)=C(Cl)C(Cl)=C2Cl)cc1`?
**A.** GI50: 1.83 µM; TGI: 3.63 µM

**Q.** Which TGI does the source give for `NS(=O)(=O)c1ccc(Nc2c3ccccc3nc3c(C(=O)N4CCN(CCO)CC4)cccc23)cc1` here?
**A.** The TGI was greater than 100 µM.

**Q.** How did the TGI turn out when `COC1(C)C(=O)N2C1N(C(=O)OC(C)(C)C)CC2(C)C` (stereo not given) was run?
**A.** The TGI was greater than 100 µM.

**Q.** With `O=C(C=P(c1ccccc1)(c1ccccc1)c1ccccc1)CCl` as the compound, how does the GI50 read?
**A.** The GI50 was 2.31 µM.

**Q.** And the TGI?
**A.** The TGI was 7.29 µM.

**Q.** `OCC(O)CNc1ncnc2ccccc12` (stereo not given) was tested. Which TGI did it give?
**A.** The TGI was greater than 100 µM.

**Q.** How did the TGI turn out when `CC(C)CCNC(=O)C(CC(C)C)NC(=O)[C@H]1O[C@@H]1C(=O)O` (stereo not given in full) was run?
**A.** The TGI was greater than 100 µM.

**Q.** With `Cc1ccc(/C=C(\NC(=O)c2ccccc2)c2nc3ccccc3[nH]2)cc1` as the compound, how does the TGI read?
**A.** The TGI was greater than 100 µM.

**Q.** `CC1C(=O)CC(c2cccs2)N(N=O)C1c1cccs1` (stereo not given) was tested. Which TGI did it give?
**A.** The TGI was greater than 100 µM.

**Q.** Which TGI does the source give for `Oc1[nH]c(=S)[nH]c1/C=C1/C(c2ccccc2)=Nc2ccccc21` here?
**A.** The TGI was 31.9 µM.

**Q.** For `CN(C)CCC(CCN(C)C)=NO`, which TGI is on record?
**A.** The TGI was greater than 100 µM.

**Q.** `O=C(O)c1cc(=O)cc(C(=O)O)o1` was tested. Which GI50 did it give?
**A.** The GI50 was greater than 100 µM.

**Q.** And the TGI?
**A.** The TGI was greater than 100 µM.

**Q.** How did the GI50 turn out when `Cn1cc(-c2nc(-c3c[nH]c4ncccc34)cs2)c2ccccc21` was run?
**A.** The GI50 was 1.29 µM.

**Q.** What about the TGI of the same compound?
**A.** The TGI was greater than 100 µM.

**Q.** For `C/C(=N\OCC(O)CNCCSCc1ccccc1)c1ccccc1Cl` (stereo not given), which TGI is on record?
**A.** Its TGI is 36.9 µM.

**Q.** Which TGI does the source give for `CCOc1ccc(/C=C/c2cc(OC)c(OC)c(OC)c2)cc1` here?
**A.** The TGI was 19.8 µM.

**Q.** What does the source list for `NC(=S)N/N=C1\c2ccccc2-c2c(F)c(F)c(F)c(F)c21`?
**A.** GI50: 21.1 µM; TGI: 43.9 µM

**Q.** With `O=C(c1ccc(C(F)(F)F)c(Cl)c1)N(Cc1ccc(Cl)cc1)c1ccc(-c2cc(C(F)(F)F)[nH]n2)c(O)c1` as the compound, how does the GI50 read?
**A.** Its GI50 is 1.4 µM.

**Q.** What about the TGI of the same compound?
**A.** The TGI was 5.31 µM.

**Q.** Which TGI does the source give for `COc1ccccc1CC(C)N` (stereo not given) here?
**A.** The TGI was greater than 100 µM.

**Q.** `COc1c(/C=C/C=O)cc2c(c1OC)OCO2` was tested. Which TGI did it give?
**A.** The TGI was greater than 100 µM.

**Q.** How did the GI50 turn out when `COc1ccc(/C=C2\COc3ccc(O)c(O)c3C2=O)c(OC)c1OC` was run?
**A.** Its GI50 is 3.88 µM.

**Q.** What about the TGI of the same compound?
**A.** Its TGI is 47.6 µM.

**Q.** With `Cc1cc(=O)oc2c(CNC(CO)C(=O)O)c(O)ccc12` (stereo not given) as the compound, how does the TGI read?
**A.** Its TGI is greater than 100 µM.

**Q.** Which TGI does the source give for `CCOC(=O)CNC(=O)C(Cc1ccccc1)NC(=O)C(C)(C)NC(=O)OCc1ccccc1` (stereo not given) (Cbz-[Aib]-[ξF]-Gly-OEt) here?
**A.** The TGI was greater than 100 µM.

**Q.** Which TGI does the source give for `CC(C)(C)C(=O)Nc1cccc2oc(-c3ccccc3)cc12` here?
**A.** Its TGI is greater than 100 µM.

**Q.** Which TGI does the source give for `CN(Cc1cn(O)c2nc(=N)nc(N)c-2n1)c1ccc(C(=O)NC23CC4CC(CC(C4)C2)C3)cc1` here?
**A.** Its TGI is greater than 100 µM.

**Q.** Which TGI does the source give for `C/C=C(/C)C(=O)O[C@H]1[C@H]2[C@@H]([C@@H](OC(C)=O)[C@H](C)C(=O)[C@@]34C[C@@H](C)C(=O)[C@]3(/C=C(\C)[C@H]1OC(C)=O)O4)C2(C)C` here?
**A.** The TGI was greater than 20 µM.

**Q.** Which TGI does the source give for `CSc1nc2nn(Cc3ccccc3)cc2c(=O)[nH]1` here?
**A.** Its TGI is greater than 100 µM.

**Q.** Which GI50 does the source give for `CC(C)(C)c1cc(NC(=O)Nc2ccc(-c3cn4c(n3)sc3cc(OCCN5CCOCC5)ccc34)cc2)no1` here?
**A.** Its GI50 is 9.65 µM and 2.02 µM and > 10 µM.

**Q.** And the TGI?
**A.** The TGI was 26.7 µM and 17.3 µM and > 10 µM.

**Q.** With `COc1cccc(-c2cc(=O)c3cc(N4CCOCC4)ccc3[nH]2)c1` as the compound, how does the GI50 read?
**A.** Its GI50 is 0.0332 µM.

**Q.** What about the TGI of the same compound?
**A.** The TGI was 25.9 µM.

**Q.** `O=C(NCCC1CN(C(=O)OCc2ccccc2)c2ccccc21)OCc1ccccc1` (stereo not given) was tested. Which TGI did it give?
**A.** Its TGI is greater than 100 µM.

**Q.** How did the GI50 turn out when `C=C1C(=O)O[C@H]2[C@H](OC(C)=O)[C@@H](C)CCCC3(C)OC3CCC3(CO3)[C@H](O)C[C@@H]12` (stereo not given in full) was run?
**A.** The GI50 was 17.8 µM.

**Q.** What about the TGI of the same compound?
**A.** Its TGI is 38 µM.

**Q.** Which TGI does the source give for `O=C1C2CCCCC2C(=O)N1n1c(-c2ccccc2)n[nH]c1=O` (stereo not given) here?
**A.** Its TGI is greater than 100 µM.

**Q.** `CCOC(=O)C(CCC(N)=O)(CCC(=O)OC)C(=O)OCC` was tested. Which TGI did it give?
**A.** Its TGI is greater than 100 µM.

**Q.** Which TGI does the source give for `O=C1CSC(c2ccccc2)N1c1ccc(-n2c(-c3ccccc3)nc3ccccc3c2=O)cc1` (stereo not given) here?
**A.** The TGI was greater than 100 µM.

**Q.** `C=CC(=O)NC(N)=NC#N` was tested. Which TGI did it give?
**A.** The TGI was 320 µM.

**Q.** `O=[N+]([O-])c1cccc(-c2ncc3c(n2)-c2ccccc2C3)c1` was tested. Which TGI did it give?
**A.** Its TGI is greater than 100 µM.

**Q.** For `Cc1ccc2cccc(OC(=O)Nc3cccc(C(F)(F)F)c3)c2n1`, which GI50 is on record?
**A.** Its GI50 is 3.48 µM.

**Q.** What about the TGI of the same compound?
**A.** Its TGI is 18.8 µM.

**Q.** Which results are given for `N#CC(C#N)=C1CCOc2ccc(F)cc21`?
**A.** GI50: 15.3 µM; TGI: 54.3 µM

**Q.** `CCN(CC)CC[n+]1ccc2c(C)c3[nH]c4ccc(O)cc4c3c(C)c2c1` was tested. Which TGI did it give?
**A.** The TGI was 27.2 µM and 21.4 µM.

**Q.** With `CCOC(=O)CC[C@H](NC(=O)N[C@H](C)c1ccccc1)C(=O)OCC` as the compound, how does the TGI read?
**A.** The TGI was greater than 100 µM.

**Q.** How did the TGI turn out when `CCC1(CC)C(=O)N(C(=O)c2ccccc2)N(C(=O)c2ccc(Cl)cc2)C1=O` was run?
**A.** The TGI was greater than 75 µM.

**Q.** How did the TGI turn out when `CC(C)(C)c1cc(CCCCCCCC2(CCCCCCCc3cc(C(C)(C)C)cc(C(C)(C)C)c3)OC(COCCOCCCCCC#N)C(COCCOCCCCCC#N)O2)cc(C(C)(C)C)c1` (stereo not given) was run?
**A.** The TGI was greater than 100 µM.

**Q.** `COC1=C(C)C(=O)c2c(c(CCCl)c3n2CCC3OC(C)=O)C1=O` (stereo not given) was tested. Which GI50 did it give?
**A.** The GI50 was 0.186 µM.

**Q.** What about the TGI of the same compound?
**A.** The TGI was 3.99 µM.

**Q.** For `C=C(C)[C@@H]1CCC2=C[C@H](C/C(C)=C\C3=CC(C)=C(O3)[C@H]1O)OC2=O`, which TGI is on record?
**A.** The TGI was greater than 100 µM.

**Q.** `CSc1nn(C)cc2ncnc1-2` was tested. Which TGI did it give?
**A.** Its TGI is greater than 100 µM.

**Q.** How did the TGI turn out when `Cc1cc2c(c(O)c1-c1c(C)cc(O)c3c1C(=O)C=CC3=O)C(=O)C=CC2=O` was run?
**A.** The TGI was 31 µM.

**Q.** Which TGI does the source give for `COc1cccc(/C=C/C(=O)c2sc(C(N)=S)nc2C)c1O` here?
**A.** Its TGI is greater than 100 µM.
